From patent US20120183541A1 (Five Prime, published 2012) come the findings set out here.

Test [1] addresses T1, FGF19 (UniProt O95750).
T1 construct: Commercial protein
Nature of the test: SPR (Biacore), Fc fusion captured on Protein A chip, FGF19 injected, 50 uM heparin, 1:1 model. The method, then: (§1) The FGF2 and FGF19 ligand binding affinity and kinetics of R4Mut4 and five different FGFR4 ECD variant-Fc fusion proteins (collectively “FGFR4 ECD proteins”) were determined using Biacore® X surface plasmon resonance (SPR) technology (Uppsala, Sweden). FGF2 was selected because it is broadly expressed in adult tissue. FGF19 was selected because, in the absence of other protein cofactors, it binds specifically to FGFR4. Briefly, Protein-A was covalently linked to a CM5 chip, according to manufacturer's instructions. The FGFR4 ECD proteins were bound to the chip by interaction of the Fc domain with protein A. The FGFR4 ECD proteins were captured onto flow channels 2-4, while channel 1 served as a reference. FGF2 was purchased from Peprotech (Rocky Hill, N.J.) and FGF19 was purchased from R&D Systems. Each FGF ligand was injected at 5 concentrations (100 nM, 25 nM, 6.25 nM, 1.56 nM, and 0 nM) for 2 minutes and dissociation was monitored for 4 minutes. 50 uM Heparin was included in the running buffer. The association constant, dissociation constant, affinity, and binding capacity of each of the R4 proteins for FGF2 and FGF19 was calculated using the Biacore T100 Evaluation software package using the 1:1 binding model.
Background: Surface plasmon resonance follows binding to a sensor surface in real time, without labels.

In another test the target is T2, FGF2 (UniProt P09038 fragment).
T2 construct: Commercial protein
The test is described as follows: SPR (Biacore), Fc fusion captured on Protein A chip, FGF2 injected, 50 uM heparin, 1:1 model. Here is the method: as §1

The target of test [2] is T1, FGF19. The test is described as follows: SPR (Biacore), against parental R4Mut4. Here is the method: The FGF2 and FGF19 ligand binding affinity and kinetics of R4Mut4 and five different FGFR4 ECD variant-Fc fusion proteins (collectively “FGFR4 ECD proteins”) were determined using Biacore® X surface plasmon resonance (SPR) technology (Uppsala, Sweden). FGF2 was selected because it is broadly expressed in adult tissue. FGF19 was selected because, in the absence of other protein cofactors, it binds specifically to FGFR4. Briefly, Protein-A was covalently linked to a CM5 chip, according to manufacturer's instructions. […] Each FGF ligand was injected at 5 concentrations (100 nM, 25 nM, 6.25 nM, 1.56 nM, and 0 nM) for 2 minutes and dissociation was monitored for 4 minutes. […] The association constant, dissociation constant, affinity, and binding capacity of each of the R4 proteins for FGF2 and FGF19 was calculated using the Biacore T100 Evaluation software package using the 1:1 binding model.
In addition, FGFR4 2Ig ECD-Fc fusion proteins in which a portion of the D1 domain was deleted, in either the presence (R4(2Ig+L); SEQ ID NO: 55) or absence (R4(2Ig-L); SEQ ID NO: 56) of the D1-D2 linker region, bound FGF2 with an affinity equal to or greater than the parental R4Mut4 in that experiment, as measured by the equilibrium dissociation constant (KD). […]

FGF2, sequence (P09038 135-288 limits assumed): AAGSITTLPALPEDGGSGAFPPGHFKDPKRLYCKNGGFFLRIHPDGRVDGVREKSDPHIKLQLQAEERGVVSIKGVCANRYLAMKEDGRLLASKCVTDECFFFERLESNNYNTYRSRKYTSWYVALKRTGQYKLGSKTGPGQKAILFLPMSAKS
T1 sequence (O95750 25-216 limits assumed): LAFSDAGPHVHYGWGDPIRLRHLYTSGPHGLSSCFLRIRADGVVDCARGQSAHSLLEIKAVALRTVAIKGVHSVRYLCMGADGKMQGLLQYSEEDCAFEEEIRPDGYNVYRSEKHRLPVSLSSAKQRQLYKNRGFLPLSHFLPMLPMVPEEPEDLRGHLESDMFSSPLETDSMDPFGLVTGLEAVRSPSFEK

B1: FGFR4ECD(ABMut2: delta17)-Fc (Fc fusion)
chain: LEASEEVELEPCLAPSLEQQEQELTVALGQPVRLCCGRAERGGHWYKEGSRLAPAGRVRGWRGRLEIASFLPEDAGRYLCLARGSMIVLQNLTLITGDALPSSEDDDDDDDSSSEEKETDNTKPNQAPYWTHPQRMEKKLHAVPAGNTVKFRCPAAGNPTPTIRWLKDGQAFHGENRIGGIRLRHQHWSLVMESVVPSDRGTYTCLVENAVGSIRYNYLLDVLERSPHRPILQAGLPANTTAVVGSDVELLCKVYSDAQPHIQWLKHIVINGSSFGADGFPYVQVLKTADINSSEVEVLYLRNVSAEDAGEYTCLAGNSIGLSYQSAWLTVLP[no letters for human IgG1 Fc with changes]
notes: The entry is the whole ECD-Fc fusion; also called FGFR4 ECD Δ17 R1 exon 4 chimera + Fc
By Kd is commonly meant the constant that tells how readily two partners part at equilibrium. High values mean weaker binding, low ones tighter binding. What is called koff is the first-order rate constant of dissociation. Read a high koff as a short-lived complex. Usually kon stands for a measure of how fast the partners come together. Lower therefore signals slower complex formation. Take B1: in the test with FGF19 [1], the affinity, expressed as Kd, was 2.58 nM; the koff worked out at 0.00064 s⁻¹; the kon turned out to be 250000 M⁻¹ s⁻¹. Moreover, in the test with FGF2, the Kd is 2.26 nM, the koff amounted to 0.00026 s⁻¹ and the association rate constant (kon) is 114000 M⁻¹ s⁻¹.

B2: FGFR4ECD(ABMut3: delta17)-Fc (Fc fusion)
chain: LEASEEVELEPCLAPSLEQQEQELTVALGQPVRLCCGRAERGGHWYKEGSRLAPAGRVRGWRGRLEIASFLPEDAGRYLCLARGSMIVLQNLTLITGDSLTSSEDDDDDDDSSSEEPSNRHSYPQQAPYWTHPQRMEKKLHAVPAGNTVKFRCPAAGNPTPTIRWLKDGQAFHGENRIGGIRLRHQHWSLVMESVVPSDRGTYTCLVENAVGSIRYNYLLDVLERSPHRPILQAGLPANTTAVVGSDVELLCKVYSDAQPHIQWLKHIVINGSSFGADGFPYVQVLKTADINSSEVEVLYLRNVSAEDAGEYTCLAGNSIGLSYQSAWLTVLP[no letters for human IgG1 Fc with changes]
notes: The entry is the whole ECD-Fc fusion
On to B2, for which, in the test with FGF19 [1], binding was characterised by a dissociation constant (Kd) of 3.5 nM, the koff came to 0.00074 s⁻¹ and the kon came to 211000 M⁻¹ s⁻¹. In the test with FGF2, this molecule displayed a Kd of 1.44 nM, a koff of 0.00035 s⁻¹ and a kon of 242000 M⁻¹ s⁻¹.

B3: FGFR4ECD(2Ig + Linker)-GS linker-Fc (Fc fusion)
chain: LEASEEVELEDSLTSSNDDEDPKSHRDPSNRHSYPQQAPYWTHPQRMEKKLHAVPAGNTVKFRCPAAGNPTPTIRWLKDGQAFHGENRIGGIRLRHQHWSLVMESVVPSDRGTYTCLVENAVGSIRYNYLLDVLERSPHRPILQAGLPANTTAVVGSDVELLCKVYSDAQPHIQWLKHIVINGSSFGADGFPYVQVLKTADINSSEVEVLYLRNVSAEDAGEYTCLAGNSIGLSYQSAWLTVLPEEDPTWTAAAPEARYTDGS[no letters for human IgG1 Fc with changes]
notes: The entry is the whole ECD-GS-Fc fusion; also called R4(2Ig + L); R4(2Ig+L)
With B3, the “fold reduction of binding against parental R4Mut4” value with FGF19 [2] was about 10 fold. In the test with FGF19 [1], the equilibrium dissociation constant (Kd) was found to be 34.3 nM, the koff was 0.00276 s⁻¹ and the kon turned out to be 80000 M⁻¹ s⁻¹. In the test with FGF2, this molecule displayed a Kd of 2.54 nM, a koff of 0.00079 s⁻¹ and a kon of 313000 M⁻¹ s⁻¹.

B4: FGFR4ECD(2Ig-Linker)-GS linker Fc (Fc fusion)
chain: LEASEEVELEAPYWTHPQRMEKKLHAVPAGNTVKFRCPAAGNPTPTIRWLKDGQAFHGENRIGGIRLRHQHWSLVMESVVPSDRGTYTCLVENAVGSIRYNYLLDVLERSPHRPILQAGLPANTTAVVGSDVELLCKVYSDAQPHIQWLKHIVINGSSFGADGFPYVQVLKTADINSSEVEVLYLRNVSAEDAGEYTCLAGNSIGLSYQSAWLTVLPEEDPTWTAAAPEARYTDGS[no letters for human IgG1 Fc with changes]
notes: The entry is the whole ECD-GS-Fc fusion; also called R4(2Ig-L); R4(2Ig - L)
With B4, the “fold reduction of binding against parental R4Mut4” value with FGF19 [2] is about 5 fold. In the test with FGF19 [1], this molecule displayed a Kd of 18.1 nM, a koff of 0.00214 s⁻¹ and a kon of 118000 M⁻¹ s⁻¹. Besides, in the test with FGF2, binding was characterised by a dissociation constant (Kd) of 2.4 nM, the koff came to 0.00073 s⁻¹ and the kon was 306000 M⁻¹ s⁻¹.

B5: FGFR4ECD(ABMut1: delta17)-Fc (Fc fusion)
chain: LEASEEVELEPCLAPSLEQQEQELTVALGQPVRLCCGRAERGGHWYKEGSRLAPAGRVRGWRGRLEIASFLPEDAGRYLCLARGSMIVLQNLTLITGDALPSSEDDDDDDDSSSEEKETDNTKPNPVAPYWTHPQRMEKKLHAVPAGNTVKFRCPAAGNPTPTIRWLKDGQAFHGENRIGGIRLRHQHWSLVMESVVPSDRGTYTCLVENAVGSIRYNYLLDVLERSPHRPILQAGLPANTTAVVGSDVELLCKVYSDAQPHIQWLKHIVINGSSFGADGFPYVQVLKTADINSSEVEVLYLRNVSAEDAGEYTCLAGNSIGLSYQSAWLTVLP[no letters for human IgG1 Fc with changes]
notes: The entry is the whole ECD-Fc fusion; also called FGFR4 ECD Δ17 R1 D1-D2 linker chimera + Fc
Take B5: in the test with FGF19 [1], binding was characterised by a dissociation constant (Kd) of 3.18 nM, the koff was 0.00068 s⁻¹ and the kon worked out at 213000 M⁻¹ s⁻¹. In the test with FGF2, this molecule had a Kd of 1.7 nM, an off-rate constant (koff) of 0.00027 s⁻¹ and an on-rate (kon) of 160000 M⁻¹ s⁻¹.
